No constants are given. Whether binding was seen depends on the method and setting. Some results given as binding are weak or reduced against the parent protein; the word gives no strength.
Key:
[1] = biological target: His-tagged RNE’, a truncated RNase E protein (residues 378–659) (E. coli) (UniProt P21513); test: far-Western, overlay or dot blot; lysates of BL21(DE3) cells overexpressing His-RNE’ or His-RNE’ΔA separated by SDS-PAGE and blotted onto nitrocellulose; membrane incubated with purified FLAG-MinD in 7.5% skim milk in PBST overnight at 4 °C, then anti-FLAG antibody; only the binder purified
[2] = biological target: His-tagged RNE’ΔA, RNE’ deleted for segment A (E. coli) (UniProt P21513); test: as above
[3] = biological target: RNE’ (RNase E residues 378–659) fused to the T18 fragment of adenylate cyclase (pUT18C-rne^378-659) (E. coli) (UniProt P21513); test: two-hybrid; bacterial two-hybrid (adenylate cyclase fragments T18 and T25) in BTH101; pKT25 and pUT18C plasmids; blue colour on LB X-Gal plates with 0.5 mM IPTG
[4] = biological target: RNE’ΔA (RNase E residues 378–659 deleted for segment A) fused to the T18 fragment of adenylate cyclase (pUT18C-rne^378-659ΔA) (E. coli) (UniProt P21513); test: as above

The chains behind the UniProt entries cited, without tags or fusion partners. Where a name states a change or a piece, a line headed by the entry shows the natural chain unless it says otherwise. A line that says so, or that is headed by a name, gives the form on record, which may keep a tag or linker. Residues count along the entry.
UniProt P21513: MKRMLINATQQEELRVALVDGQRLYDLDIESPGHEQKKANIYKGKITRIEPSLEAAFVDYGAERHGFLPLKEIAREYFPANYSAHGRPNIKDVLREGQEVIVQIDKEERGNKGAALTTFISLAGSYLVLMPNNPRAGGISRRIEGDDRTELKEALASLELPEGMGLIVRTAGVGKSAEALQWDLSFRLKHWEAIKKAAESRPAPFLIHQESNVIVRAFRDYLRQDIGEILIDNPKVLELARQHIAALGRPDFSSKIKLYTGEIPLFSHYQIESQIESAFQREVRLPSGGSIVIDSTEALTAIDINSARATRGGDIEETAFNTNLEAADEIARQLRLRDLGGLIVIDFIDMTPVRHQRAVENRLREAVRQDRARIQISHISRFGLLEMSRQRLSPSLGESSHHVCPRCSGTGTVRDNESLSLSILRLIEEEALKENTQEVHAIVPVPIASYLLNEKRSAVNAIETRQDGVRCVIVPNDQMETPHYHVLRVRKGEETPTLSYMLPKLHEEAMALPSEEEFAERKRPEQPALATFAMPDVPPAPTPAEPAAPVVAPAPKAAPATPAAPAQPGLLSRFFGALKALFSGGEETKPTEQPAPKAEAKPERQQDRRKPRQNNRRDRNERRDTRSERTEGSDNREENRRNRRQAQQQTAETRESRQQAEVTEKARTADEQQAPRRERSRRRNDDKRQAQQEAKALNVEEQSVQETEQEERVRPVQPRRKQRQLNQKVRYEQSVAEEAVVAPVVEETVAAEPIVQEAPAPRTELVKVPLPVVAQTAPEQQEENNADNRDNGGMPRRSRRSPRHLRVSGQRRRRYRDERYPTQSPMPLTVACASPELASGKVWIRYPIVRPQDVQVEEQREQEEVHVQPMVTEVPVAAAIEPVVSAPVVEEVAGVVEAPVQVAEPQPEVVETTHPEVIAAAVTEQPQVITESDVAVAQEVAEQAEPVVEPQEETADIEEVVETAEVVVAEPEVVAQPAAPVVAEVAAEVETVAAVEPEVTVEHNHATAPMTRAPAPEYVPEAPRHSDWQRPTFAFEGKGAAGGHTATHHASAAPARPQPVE
RNE’ (RNase E residues 378–659) fused to the T18 fragment of adenylate cyclase (pUT18C-rne^378-659): residues 378-659 of P21513
UniProt P0AEZ3: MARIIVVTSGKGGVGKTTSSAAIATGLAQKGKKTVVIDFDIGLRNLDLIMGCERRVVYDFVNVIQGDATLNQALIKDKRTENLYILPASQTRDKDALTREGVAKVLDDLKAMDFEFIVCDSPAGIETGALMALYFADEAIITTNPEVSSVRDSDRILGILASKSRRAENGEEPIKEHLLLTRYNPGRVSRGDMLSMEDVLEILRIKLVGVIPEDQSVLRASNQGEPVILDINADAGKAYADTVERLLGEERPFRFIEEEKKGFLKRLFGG

| Substance | binding [1] | binding [2] | binding [3] | binding [4] |
| --- | --- | --- | --- | --- |
| MinD^L194R fused to the T25 domain of adenylate cyclase protein (pKT25-minD^L194R) (from UniProt P0AEZ3 1-270) |  |  | no binding |  |
| MinD^V147R fused to the T25 fragment of adenylate cyclase (pKT25-minD^V147R) (from UniProt P0AEZ3 2-270) |  |  | no binding |  |

The remaining lines, values ahead:

| binding [1] | binding [2] | binding [3] | binding [4] | Substance |
| --- | --- | --- | --- | --- |
| binds | no binding |  |  | FLAG-tagged MinD (from UniProt P0AEZ3 1-270) |
|  |  | binds |  | MinD^L48R fused to the T25 fragment of adenylate cyclase (pKT25-minD^L48R) (from UniProt P0AEZ3 2-270) |
|  |  | binds | no binding | MinD fused to the T25 fragment of adenylate cyclase (pKT25-minD) (from UniProt P0AEZ3 1-270) |
